# Results published in PubChem BioAssay AID1460 (National Center for Advancing Translational Sciences (NCATS), 2008).
# The campaign covered roughly 270,000 compounds. About 5,800 (2.1%) were called active. The shares of active, inactive and inconclusive entries below differ from those in the screen. The call rests on the fitted dose curve; in most records, active means well fitted inhibition curve with a large enough effect; inconclusive means small, poorly fitted or top-dose-only effect; inactive means flat fitted curve, though single readings scatter. Potencies beside an inconclusive call are fits to weak or partial responses and may not hold up.
# Target: Microtubule-associated protein tau (Homo sapiens) (UniProt P10636)
# Sequence of UniProt P10636 (P10636 whole entry, looked up): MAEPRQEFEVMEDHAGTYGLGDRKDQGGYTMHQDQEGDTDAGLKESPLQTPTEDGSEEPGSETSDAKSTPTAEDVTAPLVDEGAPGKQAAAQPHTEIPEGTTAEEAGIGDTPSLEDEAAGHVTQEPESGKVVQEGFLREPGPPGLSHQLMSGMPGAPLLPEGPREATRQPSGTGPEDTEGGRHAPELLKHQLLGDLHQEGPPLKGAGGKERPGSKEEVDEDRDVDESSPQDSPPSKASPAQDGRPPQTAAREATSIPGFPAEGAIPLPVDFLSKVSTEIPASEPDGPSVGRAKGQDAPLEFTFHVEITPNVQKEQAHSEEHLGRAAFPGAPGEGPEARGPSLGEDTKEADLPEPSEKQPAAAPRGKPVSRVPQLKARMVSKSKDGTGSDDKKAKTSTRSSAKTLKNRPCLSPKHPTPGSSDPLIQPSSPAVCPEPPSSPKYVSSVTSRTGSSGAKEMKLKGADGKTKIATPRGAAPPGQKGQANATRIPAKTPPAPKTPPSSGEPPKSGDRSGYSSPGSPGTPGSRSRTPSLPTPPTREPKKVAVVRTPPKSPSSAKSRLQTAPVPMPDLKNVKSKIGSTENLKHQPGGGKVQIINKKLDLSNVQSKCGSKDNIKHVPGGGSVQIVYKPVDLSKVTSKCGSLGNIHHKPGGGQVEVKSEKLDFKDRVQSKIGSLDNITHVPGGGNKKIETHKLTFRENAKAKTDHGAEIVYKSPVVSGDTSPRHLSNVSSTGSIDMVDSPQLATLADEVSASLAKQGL
# Assay: qHTS for Inhibitors of Tau Fibril Formation, Thioflavin T Binding; further: nearly all actives have a fitted effect of over 55% in size
# Conditions: recombinant tau K18 P301L, heparin-induced fibrillization, ThT fluorescence; series mostly up to 57.4 µM; activity, negative = inhibition: at the top concentration
# Summary of the method: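 Fibril formation assay: tau K18 P301L at 15 uM with trace Alexa 594 label, heparin inducer 20 uM, pH 7 sodium acetate buffer, 37 C for 6 hr; endpoint ThT signal.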
# On the % scale 0 is the no-effect control and ±100 the full control effect; potency means the concentration at half of the fitted maximal effect; tags describe the fitted curve by direction and shape.
Structure (SMILES),Potency,"activity, negative = inhibition"
COc1cc(NC(=O)CSc2nc3ccccc3cc2C)c(C(=O)O)cc1OC,"inconclusive: 28.2 µM [inhibitor, single point]",–
O=C1N=C(N2CCCCC2)S/C1=C/C1=Cc2ccccc2OC1,"inconclusive: 8.91 µM [inhibitor, partial curve]",–
COCCCNC(=O)c1c(NC(=O)c2cc(=O)c3ccccc3o2)sc2c1CCCC2,"inconclusive: 3.55 µM [inhibitor, partial curve]",–
Cc1ccc(N2CCN(c3c(CN4CCCC4)c(=O)oc4ccccc34)CC2)c(C)c1,–,inactive: -14.3%
c1ccc(CCn2nnc3ccccc32)cc1,"inconclusive: 4.47 µM [inhibitor, full curve, poor fit]",–
CC(=O)Nc1ccc2nc(NC(=O)c3ccc([N+](=O)[O-])s3)sc2c1,active: 1.12 µM,–
C/C(=N\Nc1cccc(C(=O)O)c1)c1cc2ccccc2o1,"inconclusive: 7.94 µM [inhibitor, partial curve]",–
O=C(Nc1ccc(Br)cc1Cl)N1CCOCC1,"inconclusive: 2 µM [activator, full curve, poor fit]",–
CCc1ccccc1OCCCOc1ccc(OC)cc1,"inconclusive: 22.4 µM [inhibitor, partial curve]",–
O=C(Cn1cc(SCc2ccccc2)c2ccccc21)N1CCCCCC1,"inconclusive: 17.8 µM [inhibitor, partial curve]",–
COc1cccc(CNc2ccc(N3CCCCC3)cc2)c1OC,active: 14.1 µM,–
COc1cc(NC(=O)c2cccc(Cl)c2)ccc1NC(=O)c1cccs1,"inconclusive: 17.8 µM [inhibitor, partial curve]",–
Cc1oc(-c2ccc(C(=O)NCCc3ccc(Cl)cc3)cc2)nc1CSc1ccccc1,–,inactive: 0.72%
Cc1ccc(-c2nc3ncccn3c2NC2CCCCC2)o1,–,inactive: -19.6%
COc1ccc(-c2cn3nc(N4CCC(C(=O)Nc5ccc(Cl)cc5C)CC4)sc3n2)cc1,"inconclusive: 3.98 µM [inhibitor, full curve]",–
Cc1ccc(C)c(S(=O)(=O)ON2C(=O)c3ccccc3C2=O)c1,"inconclusive: 8.91 µM [inhibitor, partial curve]",–
CCc1ccc(NC(=O)CSc2ccc(-c3ccco3)nn2)cc1,–,inactive: -12.3%
CCOc1ccccc1CNC(=O)c1cnc2c(-c3ccc(OCC)c(OCC)c3)c(C)nn2c1C,"inconclusive: 28.2 µM [inhibitor, partial curve]",–
COC(=O)CNc1ccc2c(c1)OCO2,"inconclusive: 31.6 µM [inhibitor, partial curve]",–
O=C1C(c2ccc(F)cc2)N(Cc2ccc3c(c2)OCO3)C(=O)CN1C1CCCCCC1 (stereo unspecified),"inconclusive: 39.8 µM [inhibitor, single point]",–
c1ccc(CCc2nn3c(C4COc5ccccc5O4)nnc3s2)cc1 (stereo unspecified),–,inactive: -8.79%
Cc1ccc(-n2cc3ccc([N+](=O)[O-])cc3n2)cc1,"inconclusive: 5.01 µM [inhibitor, partial curve]",–
O=C1COc2ccc(NC(=O)N3CCN(c4ccc(F)cc4)CC3)cc2N1,"inconclusive: 22.4 µM [inhibitor, partial curve]",–
c1ccc(Nc2cccc3c(Nc4ccccc4)cccc23)cc1,"inconclusive: 5.62 µM [inhibitor, partial curve]",–

Structure (SMILES),Potency,"activity, negative = inhibition"
O=C(/C(=C/O)N=Nc1ccc(Cl)cc1)c1ccncc1,active: 20 µM,–
Cc1cccc2c1[nH]c1nc(N/N=C\c3ccco3)nnc12,active: 6.31 µM,–
CC1(C(=O)NCCc2c[nH]c3ccccc23)C=CCN1C(=O)c1ccccc1 (stereo unspecified),"inconclusive: 11.2 µM [inhibitor, partial curve, poor fit]",–
COc1cc2ncnc(Nc3ccc(F)c(Cl)c3)c2cc1OCCCN1CCOCC1,"inconclusive: 25.1 µM [activator, single point]",–
COc1cc(/C=C/c2nc3cc(Cl)ccc3c(=O)n2-c2cccc(C(F)(F)F)c2)cc(OC)c1OC,–,inactive: -9.49%
N/C(=N\OC(=O)N1CCOCC1)c1ccc(Br)cc1,"inconclusive: 5.01 µM [inhibitor, single point]",–
COCCNC(=S)NC(=O)c1ccc(C(C)(C)C)cc1,"inconclusive: 25.1 µM [inhibitor, single point]",–
COC(=O)[C@@]1(Cc2ccccc2)[C@H]2c3cc(C(=O)N4CCCC4)n(Cc4ccccn4)c3C[C@H]2CN1C(=O)c1ccccc1,–,inactive: -10.5%
COC(=O)c1ccc(CN2C(=O)NC3(CCCc4ccccc43)C2=O)o1 (stereo unspecified),"inconclusive: 35.5 µM [inhibitor, partial curve]",–
COc1ccc(Cl)cc1NC(=O)CSC1=Nc2ccccc2C2=NC(CC(=O)NC3CCCCC3)C(=O)N12 (stereo unspecified),"inconclusive: 35.5 µM [inhibitor, partial curve]",–
COc1ccc(C(C)(C)C)cc1NC(=O)Nc1ccc2c(c1)OCO2,"inconclusive: 35.5 µM [inhibitor, single point]",–
O=C(CNS(=O)(=O)c1ccccc1)OCC(=O)c1ccc([N+](=O)[O-])cc1,active: 25.1 µM,–
CC(=O)Nc1ccc(/C(C)=N/NC(=O)c2ccncc2)cc1,"inconclusive: 12.6 µM [inhibitor, partial curve]",–
Cc1ccc(Nc2c(-c3ccsc3)nc3cccc(C)n23)cc1,"inconclusive: 25.1 µM [inhibitor, partial curve]",–
O=C1NC(=S)N(C(=O)c2ccc(F)cc2)/C1=C/c1cccnc1,"inconclusive: 4.47 µM [inhibitor, partial curve]",–
N#C/C(=C(/O)COC(=O)CCCNC(=O)c1ccc(Cl)cc1)c1nc2ccccc2[nH]1,"inconclusive: 11.2 µM [inhibitor, partial curve]",–
CC(=O)c1ccc(N2CCN(C(=O)c3n[nH]c4ccccc34)CC2)cc1,"inconclusive: 5.01 µM [inhibitor, partial curve]",–
O=C(CSc1nc2c(sc3ccccc32)c(=O)n1CCCC(=O)NC1CCCC1)Nc1ccc(F)cc1,–,inactive: 3.36%
Cc1ccc(-c2cc(NC(=O)CSc3n[nH]c(N)n3)n(-c3ccccc3)n2)cc1,–,inactive: -11.1%
CS(=O)(=O)c1oc(-c2ccc(F)cc2)nc1S(=O)(=O)c1ccc(Cl)cc1,"inconclusive: 7.08 µM [inhibitor, single point]",–
CCc1cc(-c2n[nH]c(=S)n2CC)cs1,–,inactive: 0.922%
Oc1ccc(C2Oc3cc(O)cc(O)c3CC2O)cc1 (stereo unspecified),–,inactive: -6.67%
COc1ccc(N2C(S)=C(C#N)C(=O)NC2c2ccc(OC)c(OC)c2)cc1 (stereo unspecified),active: 28.2 µM,–
O=C(CSc1nccc(=O)[nH]1)c1ccccc1Br,"inconclusive: 22.4 µM [inhibitor, partial curve]",–

Structure (SMILES),Potency,"activity, negative = inhibition"
CCCCNc1c([N+](=O)[O-])cc(C(=O)O)cc1[N+](=O)[O-],"inconclusive: 17.8 µM [inhibitor, single point]",–
O=c1cc(COc2ccccc2[N+](=O)[O-])nc2sccn12,"inconclusive: 39.8 µM [inhibitor, single point]",–
COc1cc(C2NC(=O)N(C)C3=C2C(=O)N(c2cccc(Cl)c2)C3)ccc1O (stereo unspecified),–,inactive: 10.1%
CCNc1ccc(C(=O)OCC(=O)NCc2ccccc2Cl)cc1[N+](=O)[O-],"inconclusive: 3.16 µM [inhibitor, full curve]",–
COCCCNC(=O)CN(c1cccc(Cl)c1)S(C)(=O)=O,–,inactive: 1.25%
O=C(N/N=C/c1ccncc1)c1ccccc1[N+](=O)[O-],–,inactive: -0.65%
CCOc1ccc(OC(=O)c2cn(-c3cccc(OC)c3)c(=O)c3ccccc23)cc1,–,inactive: -3.99%
CCCCN(C(=S)NC(=O)c1cc(OC)c(OC)c(OC)c1)c1c(N)n(Cc2ccccc2)c(=O)[nH]c1=O,–,inactive: -11.4%
O=C(O)c1ccc(-n2nc(C(F)(F)F)c3c2-c2ccoc2CC3)cc1,"inconclusive: 39.8 µM [inhibitor, single point]",–
CC(=O)c1ccc(OCC(=O)Nc2ccc3c(c2)CCC3)cc1,"inconclusive: 8.91 µM [inhibitor, partial curve]",–
COc1cc(C2CC(=O)c3c(ccc4ccccc34)N2)ccc1O (stereo unspecified),–,inactive: -11.8%
CCOc1ccccc1N1CCN(S(=O)(=O)CC)CC1,–,inactive: -16.3%
COc1ccc(Cn2nnnc2CN(Cc2cc3ccc(C)cc3[nH]c2=O)C2CCCC2)cc1,"inconclusive: 39.8 µM [inhibitor, single point]",–
O=C1CCCC(=O)N1c1ccc(NCCOCCO)c([N+](=O)[O-])c1,"inconclusive: 15.8 µM [inhibitor, partial curve]",–
O=C(CSc1nnc(CNc2ccc(F)cc2)n1Cc1ccccc1)NCc1ccco1,"inconclusive: 31.6 µM [inhibitor, single point]",–
CCOc1ccc2nc(Nc3nc4ccc(NC(C)=O)cc4s3)sc2c1,"inconclusive: 4.47 µM [inhibitor, full curve]",–
Cc1nc2scc(-c3ccccc3)c2c(=O)o1,–,inactive: -16.1%
N#Cc1ccc2c(c1)NC(=O)C1CCCN21 (stereo unspecified),active: 20 µM,–
CCOC(=O)c1c(C(=O)OCC)c(C)n(CCc2ccc(OC)c(OC)c2)c1C,–,inactive: 2.32%
C(=N\Nc1ccccn1)/c1ccc2c(c1)OCCO2,"inconclusive: 17.8 µM [inhibitor, partial curve]",–
COc1cccc(C(=O)Oc2cc(N)n(S(=O)(=O)c3ccc(C)cc3)n2)c1OC,"inconclusive: 25.1 µM [inhibitor, partial curve]",–
COC(=O)Cc1c(C)c2cc3c(c(C)c2oc1=O)OCN(CCc1ccccc1F)C3,"inconclusive: 31.6 µM [inhibitor, single point]",–
CCCc1nnc(NC(=O)CCC(=O)N2CCN(C3c4ccccc4-c4ccccc43)CC2)s1,"inconclusive: 20 µM [inhibitor, single point]",–
